PubChem BioAssay (NCATS)
Inconclusive means that the source gave no clear call. Such entries were picked first, then a sample of the others. For some of these results: A potency beside an inconclusive call is a rough fit, not a confirmed value. Activity calls are given as the source filed them. Unless noted, calls come from the whole dose curve; as a rule, active = well fitted curve in the direction sought with a large enough effect; inconclusive = small, poorly fitted or top-dose-only effect, or another doubt; inactive = no such curve, though single readings can be large; an effect the other way counts as inactive or inconclusive.

Legend:
[1] = Cytometric Cell-Based qHTS for Inhibitors of the mTORC1 Signaling Pathway in MEF (Tsc2-/-, p53-/-) Cells (AID 2660);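 note: percent of cells above a phospho-rpS6 to PI ratio cutoff in each well; plate controls were DMSO for no effect and rapamycin for full effect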
Method in brief: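 Tsc2-/-, p53-/- MEFs (empty vector) exposed to compound 24 h at 37 C, fixed, stained with Alexa-488 anti-phospho-rpS6 Ser235/236 and propidium iodide. Acumen laser scanning; phospho-S6/PI ratio thresholded against 7.5 nM rapamycin, reported as % positive cells.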

[2] = target: Thioredoxin reductase 1, cytoplasmic (Rattus norvegicus) (UniProt O89049); assay: qHTS Assay for Substrates of Mammalian Selenoprotein Thioredoxin Reductase 1 (TrxR1) (AID 488772);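 note: NADPH fluorescence in the first read after selenite addition and not the 8 min delta; potency is the fitted concentration of half-maximal effect; a drop in NADPH fluorescence below the no-compound background marks a TrxR1 substrate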
Method in brief: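 Quantitative HTS in Tris-HCl buffer at pH 7.5 with EDTA and Tween-20, using rat TrxR1, 400 uM NADPH and 400 uM selenite (final). A fall in initial NADPH fluorescence relative to background marked substrate behaviour.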

[3] = target: D(1A) dopamine receptor (Homo sapiens) (UniProt P21728); assay: HTS Assay for Allosteric Agonists of the Human D1 Dopamine Receptor: Primary Screen for Potentiators (AID 488982); note: 0% is about no effect
Method in brief: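 Tetracycline-induced HEK293 Trex D1 cells with forced coupling to calcium, loaded with no-wash calcium dye; kinetic fluorescence read 180 s after compound addition for agonism, then a further 180 s after an EC20 dopamine challenge for potentiation.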

[4] = target: Ubiquitin carboxyl-terminal hydrolase 1 (Homo sapiens) (UniProt O94782); assay: Inhibitors of USP1/UAF1: Pilot qHTS (AID 504865);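 note: rhodamine fluorescence freed from ubiquitin-rhodamine substrate followed over time; top concentration of the series differs between compounds; % is set by controls: 0 for no effect and ±100 for the full control effect; nearly all actives have a fitted effect of over 35% in size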
Method in brief: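 Enzyme-free wells gave the negative control, while test wells held 1nM USP1/UAF1 preincubated with compound for 15 min at room temperature. Ub-Rho at 150nM final started the reaction, and fluorescence at 480/540 nm was recorded kinetically.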

[5] = tested on: Zika virus NS2B-NS3 protease (unlinked complex); assay: Primary screen GU Rhodamine qHTS for Zika virus inhibitors: Unlinked NS2B-NS3 protease assay (AID 1347159); note: potency is the fitted concentration of half-maximal effect; nearly all actives have a fitted effect of over 60% in size
Method in brief: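 Noncovalent NS2B hydrophilic domain/NS3 protease complex (25 nM final) in 10 mM Tris-HCl pH 8.0, 0.01% Tween 20, preincubated 15 min with compounds (up to 114 microM), then 1.5 microM Rhodamine110 substrate. Fluorescence change over 15 min fitted to 4-parameter Hill.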

[6] = Primary qHTS for small molecule stabilizers of the endoplasmic reticulum resident proteome: Secreted ER Calcium Modulated Protein (SERCaMP) assay (AID 1508630); settings: SH-SY5Y GLuc-SERCaMP (Gaussia luciferase released on ER calcium loss) secretion, thapsigargin, luminescence; activity change, negative = inhibition: at 38.4 µM (top of the series) unless noted; note: potency is the fitted concentration of half-maximal effect
Method in brief: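 GLuc-SERCaMP-expressing SH-SY5Y cells, pretreated 16 h with compound, are challenged with thapsigargin to empty ER calcium stores; after 4 h, coelenterazine is added directly to the medium and luminescence is imaged.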

[7] = Primary qHTS for inhibitors of nuclear receptor binding SET domain protein 2 (NSD2) in an isogenic RCH-ACV NSD2 p.E1099K mutant (9B) (AID 1645876); note: potency is the fitted concentration of half-maximal effect; nearly all actives have a fitted effect of over 70% in size
[8] = Primary qHTS for inhibitors of nuclear receptor binding SET domain protein 2 (NSD2) in an RCH-ACV wild type WT cells (2C) (AID 1645877); settings: activity change, negative = cell killing: at 44.9 µM (top of the series) unless noted; note: nearly all actives have a fitted effect of over 70% in size; note: potency is the fitted concentration of half-maximal effect; for activity change, negative = cell killing: % is set by controls: 0 for no effect and ±100 for the full control effect
[9] = tested on: Nanoluciferase (engineered Oplophorus gracilirostris luciferase); assay: Primary Nanoluciferase (NLuc) qHTS assay for identification of artifact compounds. (AID 1845222);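 note: 0% = DMSO and -100% = no enzyme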
Method in brief: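 Diluted conditioned medium from NLuc-expressing S16 cells treated with compounds for 15 min at room temperature, then Nano-Glo substrate added; luminescence read after 5 min. Percent inhibition versus no-enzyme and DMSO controls fitted to 4-parameter Hill equation.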

CRL-7250 = normal cell line; assay: Cytotoxic Profiling of Annotated Libraries Using Quantitative High-Throughput Screening (AID 1296008); settings: Five cell lines viability, CellTiter-Glo ATP luminescence, 48-72 h; max response: hits give low values; note: nearly all actives have a fitted effect of over 60% in size; note: potency is the fitted concentration of half-maximal effect; for max response: % is set by controls: 0 for no effect and ±100 for the full control effect
Method in brief: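 Cells exposed to compounds for 48 or 72 hr at 37 degrees Celsius. Viability read as ATP-coupled luminescence with CellTiter-Glo after 10 min at room temperature.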

CAOV3 = assay: Primary qHTS to identify gynecologic anti-cancer compounds using libraries of approved drugs and bioactive compounds (AID 1345084); settings: Gynecologic cancer cell panel viability, ATPlite luminescence, 48 h; activity change, negative = cytotoxicity: at 57.5 µM (top of the series); note: nearly all actives have a fitted effect of over 55% in size; note: potency is the fitted concentration of half-maximal effect; for activity change, negative = cytotoxicity: % is set by controls: 0 for no effect and ±100 for the full control effect
Method in brief: (§1)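 Five-point cytotoxicity, 48 h drug exposure at 37 C, 5% CO2, on cells seeded 16 h beforehand. ATP content read by ATPlite luminescence.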

CASKI = assay: as above; settings: Gynecologic cancer cell panel viability, ATPlite luminescence, 48 h; series mostly up to 57.5 µM
Method in brief: as §1

C33A = assay: as above; settings: Gynecologic cancer cell panel viability, ATPlite luminescence, 48 h; series mostly up to 57.5 µM
Method in brief: as §1

[10] = P-glycoprotein substrates identified in KB-8-5-11 adenocarcinoma cell line, qHTS therapeutic library screen (AID 1346987); note: nearly all actives have a fitted effect of over 65% in size; note: potency is the fitted concentration of half-maximal effect
Method in brief: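 P-gp-mediated resistance screen: KB-8-5-11 cells treated 72 h with compounds in dose-response. CellTiter-Glo viability.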

[11] = Primary fluorescence-based thiol-reactive (MSTI) qHTS assay for identification of artifact compounds. (AID 1845221);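 note: potency is the fitted concentration of half-maximal effect; thiol-reactive compounds lower the probe fluorescence signal; nearly all actives have a fitted effect of over 65% in size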
Method in brief: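 Thiol-reactive compounds detected by quenching of 4 uM MSTI fluorescence (525/598 nm) after 1 h room-temperature dark incubation in PBS pH 7.4, 2% DMSO. qHTS titration; percent inhibition Hill-fitted against Acetyl-MSTI/MSTI controls.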

Es-2 = assay: Primary qHTS to identify gynecologic anti-cancer compounds using libraries of approved drugs and bioactive compounds (AID 1345084); settings: Gynecologic cancer cell panel viability, ATPlite luminescence, 48 h; series mostly up to 57.5 µM; note: nearly all actives have a fitted effect of over 55% in size; note: potency is the fitted concentration of half-maximal effect; for activity change, negative = cytotoxicity: % is set by controls: 0 for no effect and ±100 for the full control effect
Method in brief: as §1

HeLa = assay: as above; settings: Gynecologic cancer cell panel viability, ATPlite luminescence, 48 h; activity change, negative = cytotoxicity: at 57.5 µM (top of the series)
Method in brief: as §1

Hek293T = assay: as above; settings: Gynecologic cancer cell panel viability, ATPlite luminescence, 48 h, control line for the selectivity index; activity change, negative = cytotoxicity: at 57.5 µM (top of the series) unless noted
Method in brief: as §1

JEG-3 = assay: as above; settings: Gynecologic cancer cell panel viability, ATPlite luminescence, 48 h; series mostly up to 57.5 µM
Method in brief: as §1

PA-1 = assay: as above; settings: Gynecologic cancer cell panel viability, ATPlite luminescence, 48 h; series mostly up to 57.5 µM
Method in brief: as §1

SKOV3 = assay: as above; settings: Gynecologic cancer cell panel viability, ATPlite luminescence, 48 h; series mostly up to 57.5 µM
Method in brief: as §1

Tov-21-G = assay: as above; settings: Gynecologic cancer cell panel viability, ATPlite luminescence, 48 h; activity change, negative = cytotoxicity: at 57.5 µM (top of the series) unless noted
Method in brief: as §1

Tov112D = assay: as above; settings: Gynecologic cancer cell panel viability, ATPlite luminescence, 48 h; series mostly up to 57.5 µM
Method in brief: as §1

[12] = target: Cytochrome P450 2C9 (Homo sapiens) (UniProt P11712); assay: Cytochrome P450 family 2 subfamily C member 9 (CYP2C9) small molecule antagonists: luciferase biochemical (cell-free) qHTS assay (AID 1645842; active = well fitted curve in the direction sought with a large enough effect in the repeat runs; inconclusive = weak or mixed curves; inactive = no such curve, though single readings can be large; an effect the other way counts as inactive or inconclusive; note: potency is the fitted concentration of half-maximal effect; nearly all actives have a fitted effect of over 55% in size)
Method in brief: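 Luminescence, after 20 min with luciferin detection reagent, reflected CYP2C9 turnover during a 1 h NADPH-driven reaction at 37C. Enzyme-substrate mix contained 0.4% bovine serum albumin and was preincubated with compound 10 min at room temperature.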

[13] = target: Phospholipid hydroperoxide glutathione peroxidase GPX4 (Homo sapiens) (UniProt P36969); assay: Primary qHTS Assay for Inhibitors of Recombinant Selenoprotein Glutathione Peroxidase 4 (GPX4) (AID 1845192); note: % is set by controls: 0 for no effect and ±100 for the full control effect; nearly all actives have a fitted effect of over 65% in size
Method in brief: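 GR-coupled assay: recombinant GPX4 preincubated 30 min with compound at room temperature; final 200 nM GPX4, 1 mM GSH, 0.5 mM cumene hydroperoxide, 0.5 mM NADPH, 100 nM GR, 0.01% BSA, pH 7.5 Tris. NADPH fluorescence (340/450 nm) read at 0 and 15 min.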
Tags give direction and shape of the fitted curve.

Sequence of UniProt P21728 (P21728 whole entry, looked up): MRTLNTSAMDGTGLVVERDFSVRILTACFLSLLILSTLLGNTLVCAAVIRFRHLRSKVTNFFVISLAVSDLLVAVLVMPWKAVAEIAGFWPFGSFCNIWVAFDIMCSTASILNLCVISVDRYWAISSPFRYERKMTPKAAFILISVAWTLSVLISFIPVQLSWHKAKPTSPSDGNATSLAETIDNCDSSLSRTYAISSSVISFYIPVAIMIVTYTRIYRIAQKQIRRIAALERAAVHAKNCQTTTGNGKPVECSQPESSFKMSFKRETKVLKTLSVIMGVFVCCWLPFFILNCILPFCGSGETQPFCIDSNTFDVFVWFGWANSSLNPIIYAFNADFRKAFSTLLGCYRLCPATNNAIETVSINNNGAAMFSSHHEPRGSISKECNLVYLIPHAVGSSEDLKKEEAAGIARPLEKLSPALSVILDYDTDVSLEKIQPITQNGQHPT
Sequence of UniProt O94782 (O94782 whole entry, looked up): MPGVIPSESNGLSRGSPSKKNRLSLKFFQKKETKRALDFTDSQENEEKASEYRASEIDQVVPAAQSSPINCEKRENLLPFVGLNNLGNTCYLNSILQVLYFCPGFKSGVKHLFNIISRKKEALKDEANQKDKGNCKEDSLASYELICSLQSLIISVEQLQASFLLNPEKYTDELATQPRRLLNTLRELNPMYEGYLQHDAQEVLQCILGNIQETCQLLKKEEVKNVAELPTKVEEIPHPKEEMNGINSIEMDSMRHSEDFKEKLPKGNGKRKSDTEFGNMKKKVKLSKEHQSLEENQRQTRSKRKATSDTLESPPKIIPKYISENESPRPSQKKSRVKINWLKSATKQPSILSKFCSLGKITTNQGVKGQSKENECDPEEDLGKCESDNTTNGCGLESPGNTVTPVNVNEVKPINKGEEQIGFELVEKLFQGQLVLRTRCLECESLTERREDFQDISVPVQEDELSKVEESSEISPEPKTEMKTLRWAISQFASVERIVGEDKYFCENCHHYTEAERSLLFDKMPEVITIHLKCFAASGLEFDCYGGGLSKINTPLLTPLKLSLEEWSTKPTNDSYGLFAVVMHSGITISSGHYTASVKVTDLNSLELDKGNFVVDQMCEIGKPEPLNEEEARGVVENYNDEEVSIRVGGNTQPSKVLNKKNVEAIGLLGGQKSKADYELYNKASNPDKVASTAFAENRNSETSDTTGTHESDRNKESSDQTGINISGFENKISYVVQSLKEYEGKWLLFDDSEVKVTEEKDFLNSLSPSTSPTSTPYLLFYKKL
Sequence of UniProt O89049 (O89049 whole entry, looked up): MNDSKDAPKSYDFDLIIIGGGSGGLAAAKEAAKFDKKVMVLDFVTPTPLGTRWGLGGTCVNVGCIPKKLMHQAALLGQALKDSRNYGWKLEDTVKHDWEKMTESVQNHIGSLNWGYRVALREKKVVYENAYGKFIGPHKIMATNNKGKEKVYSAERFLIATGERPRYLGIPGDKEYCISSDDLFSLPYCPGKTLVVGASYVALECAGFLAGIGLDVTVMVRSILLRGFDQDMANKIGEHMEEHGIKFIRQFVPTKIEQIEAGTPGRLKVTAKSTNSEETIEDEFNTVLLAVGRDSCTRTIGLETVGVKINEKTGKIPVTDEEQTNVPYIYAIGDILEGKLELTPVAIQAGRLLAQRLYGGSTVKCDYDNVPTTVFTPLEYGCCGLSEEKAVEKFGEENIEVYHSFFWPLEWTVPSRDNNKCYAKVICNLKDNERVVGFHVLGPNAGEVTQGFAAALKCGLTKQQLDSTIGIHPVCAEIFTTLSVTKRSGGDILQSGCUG
Sequence of UniProt P36969 (P36969 whole entry, looked up): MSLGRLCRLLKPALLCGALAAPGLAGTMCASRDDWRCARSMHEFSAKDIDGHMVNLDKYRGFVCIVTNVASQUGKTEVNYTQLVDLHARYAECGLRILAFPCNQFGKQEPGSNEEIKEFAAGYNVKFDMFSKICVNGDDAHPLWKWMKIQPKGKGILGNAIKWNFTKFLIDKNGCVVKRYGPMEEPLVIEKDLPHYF
Sequence of UniProt P11712 (P11712 whole entry, looked up): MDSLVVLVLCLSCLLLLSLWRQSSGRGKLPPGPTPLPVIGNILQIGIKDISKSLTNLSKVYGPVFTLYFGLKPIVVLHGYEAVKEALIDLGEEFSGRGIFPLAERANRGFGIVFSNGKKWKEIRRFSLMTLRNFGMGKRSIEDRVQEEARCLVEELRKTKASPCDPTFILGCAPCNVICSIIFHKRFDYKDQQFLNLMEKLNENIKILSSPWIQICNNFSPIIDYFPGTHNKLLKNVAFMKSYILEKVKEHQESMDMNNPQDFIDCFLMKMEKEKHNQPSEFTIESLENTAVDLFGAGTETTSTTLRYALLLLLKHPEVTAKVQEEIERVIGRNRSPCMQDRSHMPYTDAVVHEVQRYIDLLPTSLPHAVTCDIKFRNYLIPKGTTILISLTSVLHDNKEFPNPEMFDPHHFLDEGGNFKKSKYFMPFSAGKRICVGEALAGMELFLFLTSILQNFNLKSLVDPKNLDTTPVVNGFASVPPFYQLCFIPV

COC(=O)C1=CO[C@@H](O)[C@@H]2C(CO)=CC[C@H]12
inactive: Potency [1] | Potency [3] | Potency [4] | Potency [9] | max response (CRL-7250) 0.169% | Potency (CASKI)
inconclusive: Potency [2] 29.9 µM [inhibitor, partial curve] | Potency [5] 50.1 µM [inhibitor, partial curve, poor fit] | Potency [6] 2.24 µM [inhibitor, full curve, poor fit] | Potency [7] 18.3 µM [inhibitor, partial curve, poor fit] | Potency [8] 18.3 µM [inhibitor, single point] | Potency (CAOV3) 28.2 µM [rising, partial curve, poor fit]

CC(C)c1cc(C(=O)N2CC[C@H](NC(=O)C3CC3)C2)n[nH]1
inconclusive: Potency (CRL-7250) 32.6 µM [inhibitor, single point] | Potency (C33A) 17.8 µM [rising, partial curve, poor fit]
inactive: Potency [8]

CN1c2ccccc2C(=O)N2CCC3c4ccccc4NC3C21 (stereo not drawn)
active: Potency [10] 2.02 µM | Potency (Hek293T) 5.62 µM | Potency (JEG-3) 3.98 µM | Potency (PA-1) 4.47 µM | Potency (Tov-21-G) 6.31 µM | Potency (Tov112D) 1.78 µM
inconclusive: Potency [5] 31.6 µM [inhibitor, partial curve] | Potency [11] 8.26 µM [inhibitor, partial curve] | Potency (CRL-7250) 20.2 µM [inhibitor, single point] | Potency (CAOV3) 22.4 µM [cytotoxic, single point] | Potency (CASKI) 12.6 µM [cytotoxic, partial curve] | Potency (Es-2) 28.2 µM [cytotoxic, single point] | Potency (HeLa) 6.31 µM [cytotoxic, partial curve, poor fit] | Potency (SKOV3) 7.08 µM [cytotoxic, partial curve, poor fit]

Nc1nc2c(c(N3CCNCC3)n1)CCC1=C2[C@@H]2CCCC[C@@H]2O1
inactive: Potency [10] | Potency [13] | Potency (CAOV3) | Potency (SKOV3)
inconclusive: Potency [12] 7.56 µM [inhibitor, full curve] | Potency [7] 20.5 µM [inhibitor, single point] | Potency [11] 9.47 µM [inhibitor, partial curve, poor fit] | Potency (CRL-7250) 29.1 µM [inhibitor, single point] | Potency (PA-1) 39.8 µM [cytotoxic, single point]

COc1ccc([C@@]2(O)c3c(ccc(CC=C(C)C)c3O)NC(=O)[C@@H]2OC)cc1
inconclusive: Potency [7] 20.1 µM [inhibitor, single point] | Potency [8] 20.1 µM [inhibitor, single point] | Potency (CRL-7250) 20.2 µM [inhibitor, single point] | Potency (JEG-3) 12.6 µM [rising, partial curve, poor fit]
inactive: Potency (CAOV3)
